{"source": "PubChem BioAssay AID686978", "about": "(National Center for Advancing Translational Sciences (NCATS), 2013)", "note": "Out of some 420,000 compounds screened, about 64,000 (15%) were called active. This list was built around the results that the source calls inconclusive (neither active nor inactive); the mix of calls is not that of the screen. The call rests on the fitted dose curve; in most records, active means well fitted inhibition curve with a large enough effect; inconclusive means small, poorly fitted or top-dose-only effect; inactive means flat fitted curve, though single readings scatter. No potency is given beside an inconclusive call; the fits are too rough. On the % scale 0 is the no-effect control and ±100 the full control effect; potency means the concentration at half of the fitted maximal effect; tags describe the fitted curve by direction and shape.", "data": [{"test": "qHTS for Inhibitors of human tyrosyl-DNA phosphodiesterase 1 (TDP1): qHTS in cells in absence of CPT; further: nearly all actives have a fitted effect of over 55% in size", "conditions": "DT40 Tdp1-/- hTDP1 cells, no CPT, ATP luminescence, 48 h; activity change, negative = growth inhibition: at 46.2 µM (top of the series) unless noted", "summary_of_the_method": "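A cellular qHTS used chicken DT40 cells lacking endogenous Tdp1 but carrying stably transfected human TDP1. Compounds were applied without camptothecin, and cell growth kinetics were judged by ATP-dependent luminescence after ≥48 hr.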", "values": [{"smiles": "COc1cc(/C=C/c2nc(C#N)c(N3CCN(C)CC3)o2)cc(OC)c1OC", "Potency": "active: 8.2 µM"}, {"smiles": "CN(C(=O)c1ccc2c(c1)N(Cc1cccc(Cl)c1)C(=O)c1ccccc1S2(=O)=O)C1CCCCC1", "Potency": "inconclusive [inhibitor, single point]"}, {"smiles": "CCSc1ncc(Cl)c(C(=O)Nc2ccccc2Cl)n1", "Potency": "inconclusive [inhibitor, partial curve]"}, {"smiles": "COc1ccc(CCNC2=C(Cl)C(=O)N(CCc3ccccc3)C2=O)cc1OC", "Potency": "active: 20.6 µM"}, {"smiles": "Cc1ccc(S(=O)(=O)N2C[C@H]3C(=O)C[C@@H](c4ccccc4)N(S(=O)(=O)c4cccc(C)c4)[C@H]3C[C@H]2c2ccccc2)cc1", "Potency": "inconclusive [inhibitor, partial curve]"}, {"smiles": "O=C(OCc1c(-c2ccccc2)ncc2ccccc12)c1ccc(F)cc1", "Potency": "active: 16.4 µM"}, {"smiles": "COc1ccc(SC2=C[C@@]3(O)CC[C@@H](O)[C@@](Sc4ccc(OC)cc4)(C2=O)[C@H]3O)cc1", "Potency": "active: 16.4 µM"}, {"smiles": "CCOC(=O)C(NCCc1ccccc1)(NC(=O)CC)C(F)(F)F", "note": "(stereo unspecified)", "Potency": "inactive"}, {"smiles": "COc1ccc(NC(=O)COCc2cc(-c3ccc4c(c3)OCO4)on2)cc1", "Potency": "inactive"}, {"smiles": "COc1ccccc1NC1=Nc2cccc3cccc1c23", "Potency": "inconclusive [inhibitor, partial curve]"}, {"smiles": "Cc1ccn(C(C)CC(=O)Nc2ccc(-c3ccno3)cc2)n1", "note": "(stereo unspecified)", "Potency": "inactive"}, {"smiles": "Cc1cccc(NC(=O)Nc2ccc(Cl)c(Cl)c2)n1", "Potency": "inconclusive [inhibitor, single point]"}, {"smiles": "CCOc1ccc(-c2n[nH]c(=S)c3ccccc23)cc1", "Potency": "inconclusive [inhibitor, single point]"}, {"smiles": "NC(=O)CN1C(=O)C(O)(CC(=O)/C=C\\c2ccc3c(c2)OCO3)c2ccccc21", "note": "(stereo unspecified)", "Potency": "inconclusive [inhibitor, partial curve, poor fit]"}, {"smiles": "COC(=O)C(CC(C)C)NC(=O)/C=C/c1ccc(Cl)cc1", "note": "(stereo unspecified)", "Potency": "inactive"}, {"smiles": "CC(C)OCCCNC(=O)c1cc2c(=O)n(C)c3ccccc3c2n1C", "Potency": "inconclusive [inhibitor, partial curve]"}, {"smiles": "O=C(NCc1ccc2c(c1)OCO2)C1CCCN1S(=O)(=O)c1ccc(Cl)cc1", "note": "(stereo unspecified)", "activity change, negative = growth inhibition": "inconclusive: -31.3% [inhibitor]"}, {"smiles": "C=CCN(Cc1cccc(OC)c1OC)C(=O)Oc1ccccc1", "Potency": "inactive"}, {"smiles": "Cc1cccc2cc(CN(Cc3nnnn3C3CCCCC3)C3CCCC3)c3nnnn3c12", "Potency": "inconclusive [inhibitor, single point]"}, {"smiles": "COc1cc(OC)c(/C=C/c2c3ccccc3cc[n+]2C)c(OC)c1", "Potency": "active: 0.0891 µM"}, {"smiles": "CCc1ccc(NC(=O)Cn2c(=O)n(-c3ccc(Cl)c(Cl)c3)c(=O)c3c(C)c(C)sc32)cc1", "Potency": "inactive"}, {"smiles": "Cc1ccc(NS(=O)(=O)c2cc([N+](=O)[O-])ccc2NNC(=S)Nc2cc(C)ccc2C)c(C)c1", "Potency": "active: 20.6 µM"}, {"smiles": "CCOC(=O)C1(CCOc2ccccc2)CCN(Cc2cccc3c2OCO3)CC1", "Potency": "active: 14.6 µM"}, {"smiles": "O=C1CC(c2ccco2)Cc2nc(Nc3nc(-c4ccccc4)c4ccccc4n3)ncc21", "note": "(stereo unspecified)", "Potency": "inconclusive [inhibitor, single point]"}, {"smiles": "CN(C)S(=O)(=O)c1ccc(N2CCCC2)c(C(=O)Nc2ccc(Br)cc2F)c1", "Potency": "inconclusive [inhibitor, single point]"}, {"smiles": "O=S(=O)(Nc1ccc(-c2cn3ccsc3n2)cc1)c1ccc2c(c1)OCCO2", "Potency": "inconclusive [inhibitor, single point]"}, {"smiles": "COCCNC(=O)c1cnc2sc(N3CCCCC3)nn2c1=O", "Potency": "inactive"}, {"smiles": "O=C1NC(=S)SC1=Cc1ccc(F)cc1", "Potency": "inconclusive [inhibitor, single point]"}, {"smiles": "Cc1nnc2c(N3CCN(C(=O)c4ccco4)CC3)nc3ccccc3n12", "Potency": "inconclusive [inhibitor, partial curve]"}, {"smiles": "COc1cc(OC)cc(-c2nc3nc(C)c(CCC(=O)NCc4ccco4)c(C)n3n2)c1", "Potency": "inconclusive [inhibitor, partial curve]"}, {"smiles": "COc1ccccc1Cn1c(-c2ccco2)nc2nc3ccccc3nc21", "Potency": "inconclusive [inhibitor, partial curve]"}, {"smiles": "CCN1CCc2c(sc(N)c2C#N)C1", "Potency": "active: 23.1 µM"}, {"smiles": "CSc1cccc(NC(=O)C2CCN(c3nc4ccccc4[nH]3)CC2)c1", "Potency": "inconclusive [inhibitor, single point]"}, {"smiles": "CN(CC(=O)NC(=O)NCc1ccccc1)Cc1ccc(Cl)c(Cl)c1", "Potency": "active: 29.1 µM"}, {"smiles": "Cc1ccc(NC(=O)c2ccc(CSc3ccccn3)cc2)c(O)c1", "Potency": "inconclusive [inhibitor, single point]"}, {"smiles": "Cc1ccc(S(=O)(=O)N2CCCCC2)cc1C(=O)N(CCc1ccccc1)Cc1ccccc1", "Potency": "active: 10.3 µM"}, {"smiles": "CCOc1ccc(NC(=O)CSc2cn(CCNC(=O)c3ccccc3F)c3ccccc23)cc1", "Potency": "inconclusive [inhibitor, single point]"}, {"smiles": "Cc1ccc(C(=O)Nc2ccncc2)cc1S(=O)(=O)N1CCOCC1", "Potency": "inconclusive [inhibitor, single point]"}, {"smiles": "COC(=O)c1ccc(NC(=O)c2cccc(OC)c2)cc1", "Potency": "inconclusive [inhibitor, single point]"}, {"smiles": "C=CCN1C(=O)c2ccc(C(=O)OCC(=O)N(CC)C3CCS(=O)(=O)C3)cc2C1=O", "note": "(stereo unspecified)", "Potency": "inactive"}, {"smiles": "CCc1ccccc1NC(=O)CSc1nncn2c1cc1oc(C)cc12", "Potency": "inconclusive [inhibitor, single point]"}, {"smiles": "CCOc1ccc(-n2c(SCC(=O)Nc3ccc(C(=O)O)cc3)nc3ccccc3c2=O)cc1", "Potency": "inactive"}, {"smiles": "CC1=C(C(=O)N2CCCC(CCC(=O)NCc3ccc(F)c(F)c3)C2)OCCO1", "note": "(stereo unspecified)", "Potency": "inactive"}, {"smiles": "Nc1c(Cl)cc(S(N)(=O)=O)cc1S(N)(=O)=O", "Potency": "inactive"}, {"smiles": "Cc1csc(NC(=O)Cc2ccc(Br)cc2)n1", "Potency": "inactive"}, {"smiles": "CN1OC[C@@H]2CN(C(=O)CCc3ccccc3)[C@H](c3ccc(N4CCCCC4)cc3)C[C@@H]21", "Potency": "inconclusive [inhibitor, single point]"}, {"smiles": "COc1ccccc1NC(=O)N(C)C[C@@H]1OCc2cnnn2CCCC(=O)N([C@@H](C)CO)C[C@@H]1C", "Potency": "inactive"}, {"smiles": "O=C(NCCS(=O)(=O)N1CCN(c2ccc(F)cc2)CC1)C(c1ccccc1)c1ccccc1", "Potency": "inconclusive [inhibitor, partial curve]"}, {"smiles": "C/C(N)=C(/C#N)C(=O)CSc1ncnc2ccccc12", "Potency": "inconclusive [inhibitor, single point]"}, {"smiles": "COc1ccccc1C(=O)CN1C(=O)NC2(CCc3ccccc32)C1=O", "note": "(stereo unspecified)", "Potency": "inconclusive [inhibitor, single point]"}, {"smiles": "CC(=O)N1c2ccccc2Sc2ccccc21", "Potency": "inactive"}, {"smiles": "CC1Cc2ccccc2N1Cc1nc2cc(Cl)ccc2c(=O)[nH]1", "note": "(stereo unspecified)", "Potency": "inconclusive [inhibitor, single point]"}, {"smiles": "COc1cc(-c2nc3ccc(C)cn3c2Nc2ccc3c(c2)OCCO3)ccc1O", "Potency": "inconclusive [inhibitor, single point]"}, {"smiles": "CCC1Sc2ccc(S(=O)(=O)Nc3ccc(OC)c(OC)c3)cc2NC1=O", "note": "(stereo unspecified)", "Potency": "active: 8.2 µM"}, {"smiles": "CC(C)Cc1nc(SCc2cccnc2)c2c(=O)n(C)c(=O)n(C)c2n1", "Potency": "inconclusive [inhibitor, single point]"}, {"smiles": "Cc1ccc(/C(N)=N/OC(=O)c2ccc3c(c2)OCO3)cc1", "activity change, negative = growth inhibition": "inconclusive: -31.3% [inhibitor]"}, {"smiles": "COc1ccc(C(=O)NCCSCc2ccc(Cl)cc2)cc1OC", "Potency": "inconclusive [inhibitor, single point]"}, {"smiles": "CC(=O)NC12CC3CC(C1)CC(C(=O)Nc1cccc(S(=O)(=O)N4CCCCCC4)c1)(C3)C2", "Potency": "inconclusive [inhibitor, single point]"}, {"smiles": "COc1ccc(N2CCN(CCNC(=O)c3nnc(Cc4c(F)cccc4Cl)o3)CC2)cc1", "Potency": "inactive"}, {"smiles": "c1cnc2cc3c(cc2n1)[C@@H]1CNC[C@H]3C1", "Potency": "inactive"}, {"smiles": "c1ccc(-c2cc(-c3cc(-c4ccccc4)on3)no2)cc1", "Potency": "inconclusive [inhibitor, single point]"}, {"smiles": "Cc1ccccc1NC(=O)c1cccc(S(=O)(=O)Oc2ccc([N+](=O)[O-])cc2)c1", "Potency": "inconclusive [inhibitor, single point]"}, {"smiles": "COc1ccc([N+](=O)[O-])cc1NC(=S)NC(NC(=O)C(c1ccccc1)c1ccccc1)C(Cl)(Cl)Cl", "note": "(stereo unspecified)", "Potency": "inconclusive [inhibitor, single point]"}, {"smiles": "Cc1ccc(Nc2c(-c3c[nH]c4ccccc34)nc3ccccn23)cc1", "Potency": "active: 20.6 µM"}, {"smiles": "CC(OC(=O)/C=C/c1ccc2ccccc2n1)C(=O)NCc1ccccc1", "note": "(stereo unspecified)", "Potency": "inconclusive [inhibitor, single point]"}, {"smiles": "O=C(Nc1ccccc1N1CCN(c2ccccc2)CC1)c1ccccc1F", "Potency": "active: 3.66 µM"}, {"smiles": "Cc1ccc(NC(=O)Cn2c(=O)n(Cc3ccccc3)c(=O)c3sc4ccccc4c32)cc1", "Potency": "active: 5.8 µM"}, {"smiles": "Cc1ccc(-n2c(=O)c3sc4ccccc4c3n(CC(=O)NC3CCCC3)c2=O)cc1C", "Potency": "inconclusive [inhibitor, single point]"}, {"smiles": "O=C(/C=C1\\SC(=O)N(CC(=O)Nc2ccc(Cl)cc2)C1=O)Nc1ccc(F)cc1", "Potency": "inconclusive [inhibitor, single point]"}, {"smiles": "COc1cccc(Nc2ncc3nc(-c4ccc(F)cc4)c(=O)n(CCC#N)c3n2)c1", "Potency": "inactive"}, {"smiles": "Cc1ccc(CNC(=O)CSc2nc3c(sc4ccccc43)c(=O)n2CCCOC(C)C)cc1", "Potency": "inconclusive [inhibitor, single point]"}]}]}
